From publication PMC4336329 (PLoS ONE, 2015)
In all, about 310,000 compounds went through this assay and about 2,200 (0.71%) showed an effect of 50% or more. Effects have a minus sign here. Some of the results follow.

Each compound was assayed against human ether-à-go-go-related gene (hERG) potassium channel (human, UniProt Q12809) (assay: primary screen, population patch clamp on CHO cells stably expressing hERG).
human ether-à-go-go-related gene (hERG) potassium channel, sequence (Q12809 whole entry, looked up): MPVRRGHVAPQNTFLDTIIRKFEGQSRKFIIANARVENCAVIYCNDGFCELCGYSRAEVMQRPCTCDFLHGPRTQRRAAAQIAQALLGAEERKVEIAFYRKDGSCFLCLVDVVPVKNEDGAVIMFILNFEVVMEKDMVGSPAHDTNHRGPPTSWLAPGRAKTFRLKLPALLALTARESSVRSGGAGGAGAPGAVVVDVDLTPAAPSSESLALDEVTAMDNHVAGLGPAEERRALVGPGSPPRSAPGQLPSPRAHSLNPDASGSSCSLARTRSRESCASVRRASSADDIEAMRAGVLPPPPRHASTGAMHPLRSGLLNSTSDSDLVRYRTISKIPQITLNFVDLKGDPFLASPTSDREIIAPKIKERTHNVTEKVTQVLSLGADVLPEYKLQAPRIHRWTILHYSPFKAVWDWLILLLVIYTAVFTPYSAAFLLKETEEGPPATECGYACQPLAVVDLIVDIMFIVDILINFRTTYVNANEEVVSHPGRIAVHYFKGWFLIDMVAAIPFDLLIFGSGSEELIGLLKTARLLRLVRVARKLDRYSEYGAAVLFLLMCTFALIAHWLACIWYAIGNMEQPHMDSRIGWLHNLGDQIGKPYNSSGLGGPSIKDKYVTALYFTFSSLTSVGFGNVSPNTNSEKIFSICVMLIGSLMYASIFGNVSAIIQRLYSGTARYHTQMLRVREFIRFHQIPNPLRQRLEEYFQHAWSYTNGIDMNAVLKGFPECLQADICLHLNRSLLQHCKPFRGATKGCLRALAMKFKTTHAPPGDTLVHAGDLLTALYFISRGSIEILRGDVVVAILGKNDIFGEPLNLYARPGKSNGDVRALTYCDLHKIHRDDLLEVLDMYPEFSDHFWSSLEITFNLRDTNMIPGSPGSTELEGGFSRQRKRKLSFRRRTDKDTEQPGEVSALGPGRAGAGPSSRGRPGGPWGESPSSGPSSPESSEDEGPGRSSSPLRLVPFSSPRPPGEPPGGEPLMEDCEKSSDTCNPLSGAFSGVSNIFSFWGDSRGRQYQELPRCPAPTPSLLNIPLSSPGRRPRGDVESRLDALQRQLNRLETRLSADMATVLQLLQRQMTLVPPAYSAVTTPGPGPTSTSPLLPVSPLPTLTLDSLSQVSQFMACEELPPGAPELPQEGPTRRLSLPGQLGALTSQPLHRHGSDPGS

Row | Structure (SMILES) | hERG current change (%, negative = inhibition) at 1uM [%]
1 | Cc1ccc(C(=O)N(CCCN(C)C)c2nc3ccc(Cl)cc3s2)cc1C.Cl | 9.34
2 | CCOc1ccc(NC(=O)Nc2cccs2)cc1 | 13.3
3 | O=C(O)c1n[nH]nc1-c1ccccc1 | 18.3
4 | O=C(COc1ccccc1Cl)Nc1ccc(S(=O)(=O)Nc2ccccn2)cc1 | 13.1
5 | CCn1c(=O)cc(SCC(=O)NCC2CCCO2)c2ccccc21 (centres unmarked) | -2.95
6 | CC1=CC2=NC(=O)CC(C)(C(=O)N(CC(=O)NC(C)(C)C)Cc3cccs3)N2C=C1 (centres unmarked) | -2.79
7 | Cc1ccc(NC(=S)N(CCN(C)C)Cc2cc3cc(C)ccc3[nH]c2=O)cc1 | 1.61
8 | O=C(COC(=O)c1cccs1)c1ccc2ccccc2c1 | -0.311
9 | NS(=O)(=O)c1ccc(CCNC(=O)c2ccccc2Cc2ccccc2)cc1 | -28.2
10 | COc1cc(C)cc(CN2CCC(Cc3ccccc3)CC2)c1O | -6.99
11 | O=C(N/N=C\c1ccccn1)c1cccc(C(=O)N/N=C\c2ccccn2)n1 | 4.23
12 | CC1CCN(C(=O)c2cc3nc(-c4ccccc4)cc(-c4ccccc4)n3n2)CC1 | -0.803
13 | Cc1cccc2cc(CN(CC3CCCO3)C(=O)c3ccco3)c3nnnn3c12 (centres unmarked) | 5.52
14 | O=C(CNC(=O)Cc1ccc(Cl)cc1)NCc1ccco1 | 11.4
15 | CCCCn1c(=O)[nH]c(=O)c2c1nc(-c1ccc(-c3ccccc3Br)o1)n2CC | 18.8
16 | COc1ccc(-c2nc(CN3CCC(C(=O)NC4CCCC4)CC3)c(C)o2)cc1OC | -2.29
17 | COc1ccc(OC)c(NC(=O)C2CCN(c3ncccn3)CC2)c1 | 5.56
18 | CCOC(=O)c1c(C)oc2ccc(OCC(N)=O)cc12 | 15.3
19 | CNC(=O)c1c(C)nn(-c2ccc(F)c(Cl)c2)c1-c1cc(C)on1 | 7.81
20 | CCn1cc(NC(=O)Nc2ccc(OC)c(OC)c2)c(C(N)=O)n1 | 0.0335
21 | COc1ccc(CCNC(=O)C(=O)NCC2OCCN2S(=O)(=O)c2ccc(Cl)cc2)cc1OC (centres unmarked) | 5.39
22 | Cc1ccc(CS(=O)(=O)Cc2ccc(C(=O)N3CCC4(CC3)OCCO4)o2)cc1 | -1.4
23 | c1ccc(-c2nnc(SCc3cn4ccsc4n3)o2)cc1 | 3.34

Row | Structure (SMILES) | hERG current change (%, negative = inhibition) at 1uM [%]
24 | CCOc1ccc(S(=O)(=O)NCc2ccncc2)cc1 | 3.83
25 | C=CCn1c(SCC(=O)c2ccc(NS(=O)(=O)c3ccccc3)cc2)nnc1-c1cccs1 | -2.03
26 | Cn1c(C=O)c(C#CC(C)(C)O)c2ccccc21 | 21.4
27 | COc1cccc(C2C(C(=O)Nc3nc4ccccc4s3)=C(C)NC3=C2C(=O)CC(C)(C)C3)c1OC (centres unmarked) | 12.3
28 | CC1(C)CC(=O)c2c(-c3cccnc3)n[nH]c2C1 | 2.86
29 | CCOc1ccc(-n2c(SCc3cc(=O)oc4cc(C)ccc34)nnc2-c2cccnc2)cc1 | -30.2
30 | CC(c1ccc(F)cc1)n1c(-c2cccs2)n[nH]c1=S (centres unmarked) | 7.94
31 | O=C(NCC1CCCO1)c1cc(C(=O)C2CCCCC2)c[nH]1 (centres unmarked) | 18
32 | Cc1nc(-c2ccncc2)sc1C(=O)Nc1ccc(Cl)cc1 | 8.94
33 | CC(C)CNC(=O)COC(=O)Cc1ccc(Cl)cc1 | 12.9
34 | Cc1noc(C)c1S(=O)(=O)N1CCCC(C(=O)N2CCC(C)CC2)C1 (centres unmarked) | 8.93
35 | Cc1c(OC(C)C(=O)NC(Cc2c[nH]c3ccc(O)cc23)C(=O)O)ccc2c1oc(=O)c1ccccc12 (centres unmarked) | 4.58
36 | COc1ccc(CNC(=O)C(C)n2ccc3cc(S(=O)(=O)N4CCCCCC4)ccc32)cc1 (centres unmarked) | 10
37 | CCOC(=O)c1c(C)c(C(=O)Nc2cc(F)ccc2F)c(C)n1C | 13.7
38 | COc1ccc(-n2nc(C(=O)Nc3ccc4c(c3)OCO4)c3c4ccccc4n(C)c3c2=O)cc1 | 5.92
39 | COc1cc(/C=C/C(=O)Nc2cccc(S(=O)(=O)N3CCOCC3)c2)ccc1OCC#N | 7.98
40 | CC(C)CCN1CCN(CC#Cc2ccccc2)CC1CCO (centres unmarked) | 4.3
41 | COc1cc(C2C(C(=O)c3cccs3)=C(O)C(=O)N2c2cc(C)on2)ccc1O (centres unmarked) | 2.84
42 | CCOc1ccc(-c2[nH]ncc2-c2ccccc2)c(O)c1 | 15.5
43 | CCn1c(SCC(=O)Nc2ccccc2Cl)nnc1C1CC1 | 18.3
44 | Cc1onc(-c2ccccc2)c1NC(=O)N(CCC#N)Cc1cccs1 | 5.56
45 | CCN(CC)S(=O)(=O)c1cc(C(=O)NC2=NCCS2)ccc1Cl | 8.61
46 | CC(C)c1nc(C#N)c(NN)o1 | 13.6

Row | Structure (SMILES) | hERG current change (%, negative = inhibition) at 1uM [%]
47 | COc1ccccc1NC(=O)c1ccc(CSc2ccccc2)o1 | -11.3
48 | Cc1ccc(NC(=O)c2nc[nH]c2C(=O)N[C@H](C)c2ccccc2)cc1 | 17.7
49 | COc1ccc(NC2=Nc3ccccc3N3C2=Nc2c(c(C)nn2-c2ccc(C)cc2)C3c2cccnc2)cc1 (centres unmarked) | 17.7
50 | NC(=O)C1CCN(C(=O)Cc2ccsc2)CC1 | 5.53
51 | COc1cccc(OCc2cc(C(=O)N3CCC(c4ccncc4)CC3)no2)c1 | -0.65
52 | Cc1cc(C)nc(SCc2nnc(SCC(N)=O)o2)n1 | 5.92
53 | CCCCCC(=O)N/N=C/c1cc(Br)c(O)c(OC)c1 | 10.8
54 | CCN1CCN(Cc2nc3c(c(=O)n(C)c(=O)n3C)n2C(C)C(C)=O)CC1 (centres unmarked) | 20.2
55 | COc1ccccc1CCC(=O)Oc1ccc(C#N)cc1OC | 7.54
56 | COC(=O)c1ccc(/C=N/NC(=O)C2CC(=O)N(c3ccc(F)cc3)C2)cc1 (centres unmarked) | 16.8
57 | CCOC(=O)Nc1cc(C(=O)OC)ccc1C | 4.24
58 | Cc1ccc2[nH]c(=S)cc(C)c2c1 | 14.7
59 | CSc1nnc(C)c(=O)n1COC(=O)c1ccc(S(=O)(=O)N2CCCC2)cc1 | -19.4
60 | CC(=O)NC(Cc1ccccc1F)C(=O)NC1CCN(C(=O)NCc2ccccc2)CC1 (centres unmarked) | 3.12
61 | O=C(O)/C=C\C(=O)Nc1ccccc1C#Cc1ccccc1 | 9.27
62 | O=c1ccc(=O)n(-c2ccccc2)[nH]1 | 11.9
63 | COc1ccc(CCN(C(=O)c2ccco2)C(C(=O)NC2CCCC2)c2ccncc2)cc1OC (centres unmarked) | -14.3
64 | COC(=O)Cn1ncc(N2CC(C)OC(C)C2)c(Cl)c1=O (centres unmarked) | 15.7
65 | CC(C(=O)NCc1ccccn1)c1ccc([N+](=O)[O-])cc1 (centres unmarked) | -0.451
66 | COc1ccc2cc(C(C)C(=O)O)ccc2c1 (centres unmarked) | 9.27
67 | Cn1c(CN2CCN(c3cccc(Cl)c3)CC2)nc2ccccc21 | -8.92
68 | CCC(Oc1ccccc1)C(=O)Nc1ccc(S(=O)(=O)Nc2cnc3ccccc3n2)cc1 (centres unmarked) | -1.44
69 | O=C(NCc1ccco1)c1nn(-c2ccccc2)c(=O)c2ccccc12 | -7.78

Row | Structure (SMILES) | hERG current change (%, negative = inhibition) at 1uM [%]
70 | COc1ccc(-c2nc(CS(=O)CC(=O)NCCN3CCCCC3C)c(C)o2)cc1OC (centres unmarked) | 14.7
71 | Cn1nc(-c2ccc(Cl)cc2)c2cc(C(=O)NCc3ccco3)sc21 | 0.219
72 | CC(Sc1nc(-c2ccccc2)cc(C(F)(F)F)n1)C(=O)O (centres unmarked) | 11.3
73 | Cc1ccc2oc(=O)n(CCCOc3ccccc3)c2c1 | 8.51
74 | COc1cc(S(C)=O)ccc1-c1nc2ncccc2[nH]1 (centres unmarked) | 6.39
75 | Cc1ccc(C2=NOC(c3nnc(-c4ccccc4)o3)C2)cc1 (centres unmarked) | 5.56
76 | Cc1ccc(SCC(=O)NC(=O)Nc2ccc3c(c2)OCCO3)c(C)c1 | 4.47
77 | Cc1ccc(C)c(/C=N/n2cc(-c3ccccc3)[nH]c2=S)c1 | 16.7
78 | CC1(C)Oc2cc3oc(-c4cc(O)cc(O)c4)cc3cc2CC1O (centres unmarked) | 11.4
79 | CCC1COCCS(=O)(=O)N1Cc1ccccc1 (centres unmarked) | 9.21
80 | CN(C)S(=O)(=O)c1cccc(COc2ncnc3c(Cl)cc(Cl)cc23)c1 | 17.4
81 | O=C(CN1C(=O)CCC1=O)c1ccc(-c2ccccc2)cc1 | 2.14
82 | COc1cc(C2C(C#N)=C(N)N(c3sc4c(c3C#N)CCCC4)C3=C2C(=O)CC(C)(C)C3)cc(OC)c1OC (centres unmarked) | -0.174
83 | COc1cc2c(cc1OC)CN(C(=O)C(C)(C)C)CC2 | 14.9
84 | CCC[C@@H](CN[C@@H](CNC)[C@H](C)CC)NCC1CCC(C(C)(C)C)CC1 (some centres unmarked) | 4.79
85 | Nc1c(C(=O)Nc2ccc3c(c2)OCCO3)nnn1Cc1ccccc1 | 6.93
86 | COc1ccc(OC)c(NC(=O)CSc2nncc3ccc(OC)c(OC)c23)c1 | 12.3
87 | O=C(NNC(=O)c1ccccc1Br)c1ccncc1 | 11.4
88 | COc1cccc(-c2nc(-c3ccccc3)c(-c3ccccc3)[nH]2)c1OCC(=O)O | 8.4
89 | COc1cc(C(=O)N(Cc2ccc(N(C)C)cc2)C2CCS(=O)(=O)C2)cc(OC)c1OC (centres unmarked) | 5.87
